SMILES strings stand for the structures. Screen size: about 46,000 compounds; about 60 (0.1%) were called active. Another 3% or so got no clear call; they are omitted. Calls come from the whole dose curve; as a rule, active = well fitted inhibition curve with a large enough effect; inconclusive = small, poorly fitted or top-dose-only effect; inactive = no such curve, though single readings can be large or run the other way. Some of the results follow.

The assay can be described thus: Primary qHTS assay for Inhibitors of ovarian cancer metastasis using an organotypic tumor microenvironment (TME) model.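 For activity change, negative = inhibition: plate controls were DMSO wells for no effect and tomatine positive control wells for full effect.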 Note: nearly all actives have a fitted effect of over 65% in size. As to conditions: SKOV3ip1-GFP adhesion/invasion on 3D omental model, fluorescence; series mostly up to 45.8 µM; activity change, negative = inhibition: at the top concentration. In a few lines:
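qHTS, 4-pt dose (0.36-46 umol/L); SKOV3ip1-GFP, 1,200 cells/well, no FBS; primary omental fibroblast/mesothelial co-culture 48 h pre-grown; 2 h RT + 16 h 37 C; PBS wash, 4% PFA; GFP count 488/509 nm.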
For orientation: qHTS replaces the single test concentration by a dilution series.
Consider `COc1ccc(CCNC(=O)c2cnn(-c3ccc(F)cc3)c2C2CCN(C(=O)OC(C)(C)C)CC2)c(OC)c1`, for which the “activity change, negative = inhibition” value is inactive: -5.39%.

On to `CCc1ccccc1NC(=O)N1CCc2c([nH]c3ccccc23)C1c1ccc(C)cc1` (stereo unspecified), for which the compound was called inactive.

With `COc1cccc(NC(=O)C2CCN(c3nnc(C)c4c(C)n(-c5ccccc5)nc34)CC2)c1`, the “activity change, negative = inhibition” value is inactive: -2.36%.

As to `CCc1ccc(OCC(=O)N(Cc2ccc(C)o2)C2CCS(=O)(=O)C2)cc1` (stereo unspecified), the call was inactive.

For the compound `Cc1ccc(S(=O)(=O)N(CC(=O)NCCc2ccc(Cl)cc2)c2ccccc2C)cc1`, the “activity change, negative = inhibition” value is inactive: -17.1%.

Consider `Cc1c(NC(=O)c2cc(-c3cccc(O)c3)on2)c(=O)n(-c2ccccc2)n1C`, for which the “activity change, negative = inhibition” value was inactive: 23.8%.

For the compound `CCOC(=O)N1CCc2c(sc3c2c(=O)n(Cc2ccccc2)c(=O)n3Cc2ccccc2Cl)C1`, the “activity change, negative = inhibition” value was inactive: 1.67%.

On to `Cc1ccc2ncc(C(=O)N3CCN(c4ccccc4F)CC3)c(=O)n2c1`, for which the “activity change, negative = inhibition” value is inactive: 4.45%.

On to `O=C(COc1ccccc1F)Nc1nnc(SCc2cc(=O)c3ccccc3[nH]2)s1`, for which the “activity change, negative = inhibition” value is inactive: -25.6%.

For `OC[C@@H](O)[C@@H](O)[C@H](O)[C@@H](O)CO`, the “activity change, negative = inhibition” value was inactive: -3.78%.

`COc1ccc(NC(=O)C2CCCN(S(=O)(=O)c3ccc4c(c3)oc(=O)n4C)C2)c(OC)c1` (stereo unspecified): the “activity change, negative = inhibition” value is inactive: -25.8%.

For the compound `Cc1c(NC(=O)c2cc(=O)c3ccccc3o2)c(=O)n(-c2ccccc2)n1C`, the “activity change, negative = inhibition” value was inactive: 0.58%.

Turning to `COc1cccc(N2CCN(C(=O)c3cccn3-c3nnc(N4CCCC4)s3)CC2)c1`, the call was inactive.

For `COCCCNC(=O)c1ccc(-n2c(-c3ccccc3)cc3c2CCC(C)C3)cc1` (stereo unspecified), the “activity change, negative = inhibition” value is inactive: -21.4%.

As for `COc1cccc(-c2nnc(SCC(=O)NC3CCCCC3)o2)c1`, the “activity change, negative = inhibition” value is inactive: 8.78%.

Consider `COc1ccc(CCN2C(=O)c3oc4cc(C)cc(C)c4c(=O)c3C2c2ccccc2F)cc1OC` (stereo unspecified), for which the compound was classed as inactive.

Take `COc1ccc(S(=O)(=O)Nc2ccc(-c3cn4ccsc4n3)cc2)cc1C`: the “activity change, negative = inhibition” value is inactive: 72.5%.

In the case of `CCCCOc1ccc(S(=O)(=O)Nc2ccc(-c3ccc(N4CCC(C)CC4)nn3)cc2)cc1`, the “activity change, negative = inhibition” value is inactive: -17.2%.

Consider `CCOc1ccc(CCNC(=O)C2CCN(C(=O)c3cc4sccc4n3CC)CC2)cc1OCC`, for which the “activity change, negative = inhibition” value is inactive: -6.68%.

Consider `CC(=O)c1ccc(NS(=O)(=O)c2ccc(-c3cc(C)no3)s2)cc1`, for which the compound was called inactive.

For `Cc1ccc(NC(=O)c2ccc(CN3C(=O)CCn4nc(C)cc43)cc2)c(Cl)c1`, the “activity change, negative = inhibition” value is inactive: 1.4%.

With `CCCn1c(=O)c2sccc2n2c(CCCC(=O)Nc3ccc(Oc4ccc(Cl)cc4)cc3)nnc12`, the “activity change, negative = inhibition” value was inactive: -2.45%.

Take `CCOC(=O)c1noc2nc(C)n(Cc3cccc(C#N)c3)c(=O)c12`: the “activity change, negative = inhibition” value was inactive: 8.88%.

With `COc1ccc(CCNC(=O)c2ccc3c(c2)nc2n3CCC(C)C2)cc1OC` (stereo unspecified), the “activity change, negative = inhibition” value is inactive: -18.4%.

Consider `COc1cccc(Cc2nc3ccccc3nc2SCC(=O)NCc2ccc(C)cc2)c1`, for which the compound was called inactive.

Turning to `CC(=O)c1ccc(NC(=O)C2CCC(CNS(=O)(=O)c3cccs3)CC2)cc1` (stereo unspecified), the “activity change, negative = inhibition” value was inactive: -0.191%.

Consider `Cc1cccc(NC(=O)Cn2c(=O)ccc3cc(S(=O)(=O)N4CCCC4)ccc32)c1C`, for which the “activity change, negative = inhibition” value is inactive: -2.99%.

On to `CCOC(=O)c1[nH]c(C)c(CCC(=O)NCc2ccc(OC)cc2)c1C`, for which the “activity change, negative = inhibition” value was inactive: 1.19%.

As to `Cc1c(NC(=O)c2cc(-c3ccc(Cl)cc3)on2)c(=O)n(-c2ccccc2)n1C`, the “activity change, negative = inhibition” value is inactive: -9.4%.

Turning to `CCOc1ccc(NC(=O)N2CCN(Cc3cc(=O)n4nc(-c5ccc(OC)cc5)sc4n3)CC2)cc1`, the “activity change, negative = inhibition” value is inactive: -0.114%.

For the compound `O=C(NCc1ccc(F)cc1)c1ccc2c(c1)nnn2C1CCCC1`, the outcome was inactive.

`COc1ccc(N2C(=O)CS(=O)(=O)C23C(=O)N(Cc2ccc(C)cc2)c2ccccc23)cc1Cl` (stereo unspecified): the outcome was inactive.

Consider `CCNC(=O)c1ccc(CSc2nc3ccncc3n2Cc2ccc(F)cc2)cc1`, for which the “activity change, negative = inhibition” value is inactive: -2.95%.

Consider `Cc1ccccc1-c1nnc(SCC(=O)N(C)C2CCCCC2)o1`, for which the compound was called inactive.

Turning to `CCCCC(=O)O[C@]1(C(=O)CO)[C@@H](C)C[C@H]2[C@@H]3CCC4=CC(=O)C=C[C@]4(C)[C@@]3(F)[C@@H](O)C[C@@]21C`, the “activity change, negative = inhibition” value is inactive: 4.06%.

On to `Cc1cccc(CCNC(=O)CN(c2ccc(C(C)C)cc2)S(=O)(=O)c2c(C)nn(C)c2C)c1`, for which the “activity change, negative = inhibition” value was inactive: 3.07%.

For the compound `Cc1ccc(NC(=O)N2CCN(c3cc(-c4noc(C)n4)ccc3C)CC2)c(C)c1`, the “activity change, negative = inhibition” value is inactive: 5.85%.

As to `CCn1c(C(=O)NCc2cc(Br)ccc2OC)cc2oc3ccccc3c21`, the “activity change, negative = inhibition” value is inactive: -11%.

Consider `CCN(C(=O)Cn1cnc2onc(-c3ccc(F)cc3)c2c1=O)c1cc(C)ccc1C`, for which the “activity change, negative = inhibition” value was inactive: 0.119%.

For `Cc1ccccc1OCC(=O)Nc1ccc2nc(SCc3ccccc3)sc2c1`, the compound was classed as inactive.

`COc1ccc(CNc2nc3ccccc3c3nc(-c4ccccc4)nn23)cc1`: the “activity change, negative = inhibition” value is inactive: -12.3%.

Regarding `Cc1ccc(OCC(=O)Nc2nc(-c3ccc(Br)cc3)ns2)cc1C`, the outcome was inactive.

On to `CC(=O)c1ccc(NC(=O)c2nc(-c3ccc(C)cc3)n3c2CCCCC3)cc1`, for which the compound was classed as inactive.

For `COc1ccc(CCNC(=O)C2CCN(c3nc4ccccc4nc3C(F)(F)F)CC2)c(OC)c1`, the “activity change, negative = inhibition” value was inactive: 154%.

`Cc1ccc(C)c(CN2C(=O)C3(c4ccccc42)N(c2ccc(Cl)cc2)C(=O)CS3(=O)=O)c1` (stereo unspecified): the “activity change, negative = inhibition” value was inactive: 30.5%.

Consider `CCc1ccc(NS(=O)(=O)c2c(C)nc3sc(CC)nn3c2=O)cc1`, for which the “activity change, negative = inhibition” value was inactive: -15.3%.

For the origin of these results see PubChem BioAssay AID1963576 (National Center for Advancing Translational Sciences (NCATS), 2024).
